# Test results published in paper PMC4336329 (PLoS ONE, 2015).
# The whole screen tested about 310,000 compounds, of which about 14,000 (4.5%) showed an effect of 50% or more. The effect is printed as a negative number. Some of the results follow. *1 amine or outer side, *2 acyl side, *3 side chain or, on linkers, in order; H or OH if unused. Where a SMILES comes first, the peptide text is derived from it. The star is where a group is joined. CO = O=C([*:1])[*:2]; NHPh = c1ccc(N*)cc1
# Biological target: human ether-à-go-go-related gene (hERG) potassium channel (human, UniProt Q12809)
# Experiment: primary screen, population patch clamp on CHO cells stably expressing hERG
# 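Further: peak tail current of the secondary pulse compared with the same well before compound.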
# Chain of human ether-à-go-go-related gene (hERG) potassium channel (Q12809 whole entry, looked up): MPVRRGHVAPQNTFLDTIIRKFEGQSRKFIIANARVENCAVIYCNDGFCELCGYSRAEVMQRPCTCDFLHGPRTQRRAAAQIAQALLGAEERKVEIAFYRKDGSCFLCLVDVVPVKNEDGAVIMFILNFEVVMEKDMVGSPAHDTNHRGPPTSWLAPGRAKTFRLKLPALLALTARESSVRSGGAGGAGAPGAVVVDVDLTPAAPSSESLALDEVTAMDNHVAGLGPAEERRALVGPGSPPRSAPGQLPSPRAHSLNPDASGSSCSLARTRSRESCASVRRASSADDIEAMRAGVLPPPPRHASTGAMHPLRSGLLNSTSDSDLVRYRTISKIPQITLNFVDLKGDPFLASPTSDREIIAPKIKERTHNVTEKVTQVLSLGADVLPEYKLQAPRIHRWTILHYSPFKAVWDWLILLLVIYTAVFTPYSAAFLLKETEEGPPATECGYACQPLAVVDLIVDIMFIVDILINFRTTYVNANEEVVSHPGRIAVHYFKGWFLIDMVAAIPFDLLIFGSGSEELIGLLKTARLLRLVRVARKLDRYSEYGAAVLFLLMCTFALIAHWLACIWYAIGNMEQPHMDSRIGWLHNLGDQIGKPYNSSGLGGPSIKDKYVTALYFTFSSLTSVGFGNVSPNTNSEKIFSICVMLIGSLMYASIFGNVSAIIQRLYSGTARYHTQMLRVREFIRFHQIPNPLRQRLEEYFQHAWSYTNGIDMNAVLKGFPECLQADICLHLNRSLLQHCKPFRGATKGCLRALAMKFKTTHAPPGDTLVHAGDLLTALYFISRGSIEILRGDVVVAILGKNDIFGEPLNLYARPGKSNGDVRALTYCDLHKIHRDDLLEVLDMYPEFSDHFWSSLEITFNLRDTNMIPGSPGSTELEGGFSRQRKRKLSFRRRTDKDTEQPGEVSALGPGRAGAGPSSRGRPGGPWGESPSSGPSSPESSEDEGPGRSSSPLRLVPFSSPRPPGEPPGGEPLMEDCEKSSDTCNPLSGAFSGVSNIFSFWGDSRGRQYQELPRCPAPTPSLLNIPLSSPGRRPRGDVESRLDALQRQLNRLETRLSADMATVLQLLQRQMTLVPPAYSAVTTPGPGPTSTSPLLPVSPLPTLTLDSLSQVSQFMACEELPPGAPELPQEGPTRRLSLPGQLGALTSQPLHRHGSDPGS
row,Structure (SMILES),"hERG current change (%, negative = inhibition) at 10uM [%]"
1,CCn1c2ccccc2c2nnc(SCC(=O)OCN3C(=O)c4ccccc4C3=O)nc21,-3.64
2,CCOC(=O)c1cn[nH]c1C(F)(F)F,9.82
3,Cc1ccccc1NCCNc1ccccc1C,-7.95
4,CCCc1cc(C(=O)Nc2cc(OC)c(Cl)cc2OC)no1,23.6
5,C=CCN(C(=O)c1csnn1)C(C(=O)NCc1ccc(F)cc1)c1ccc(F)cc1 (centres unmarked),-21.8
6,Cc1ccc(C(=O)Nc2cccnc2)cc1NC(=O)c1ccco1,0.198
7,CCOC(=O)C1(Cc2cccc(OC)c2)CCCN(S(=O)(=O)c2cccnc2)C1 (centres unmarked),-5.5
8,CCc1nnc(NC(=O)c2ccc(NC(=O)C(C)C)cc2)s1,13.6
9,CSc1cccc(NC(=O)CC(C)n2ccnc2)c1 (centres unmarked),6.56
10,CCC(=O)N(Cc1ccc(C)cc1)Cc1cc2cc3c(cc2[nH]c1=O)OCO3,-2.24
11,COCCNC(=O)Cn1cnc2c(cnn2-c2ccc(C)cc2)c1=O,-4.98
12,O=C(c1ccc(Br)cc1)N(c1ccccn1)C1CCCCC1,-8.55
13,Cc1cc(NC(=O)C2CCCCC2)nc2c1c(=O)oc1ccccc12,3.61
14,CC(CCc1ccccc1)NC(=O)c1ccc(F)cc1 (centres unmarked),1.77
15,COc1cccc(CC2(CO)CCCN(Cc3ccc(CO)o3)C2)c1 (centres unmarked),-7.04
16,O=C(c1ncc[nH]1)c1ccccc1C(=O)N1CCOCC1,10.1
17,CCc1ccccc1NC(=O)c1nnn(CC(=O)Nc2cccc(C)c2)c1N,-0.998
18,Cc1ccc(C)c(NNC(=O)C(=O)NNc2cc(C)ccc2C)c1,21.4
19,O=C(Nc1ccc(N2CCN(C(=O)c3ccccc3)CC2)cc1)c1ccc2c(c1)OCCO2,1.43
20,CCCn1c(=O)c(-c2ccccc2)c(O)c2ccccc21,14.6
21,CN(C)C(=O)CSc1n[nH]c(-c2ccco2)n1,15.9
22,Cc1nnnn1/C(=C\c1ccccc1)C(=O)OCC(=O)NC1CCCCC1,-3.81
23,COC(=O)c1c(C)[nH]c(C)c1C(C)=O,9.23

row,Structure (SMILES),"hERG current change (%, negative = inhibition) at 10uM [%]"
1,COc1ccc(C(=O)CSc2nc3ccccc3n2CC(=O)NC(C)(C)C)cc1,-12.3
2,O=S(=O)(NCc1ccc2c(c1)OCO2)c1cccc(S(=O)(=O)N2CCOCC2)c1,10.6
3,NNC(=S)NCc1ccccc1,9.98
4,O=C(Nc1c(Cl)ccc2nsnc12)c1ccco1,12.4
5,O=C(COC(=O)C1CCC(=O)N1)Nc1cc(Cl)ccc1Cl (centres unmarked),6
6,CCOC(=O)C(C)N1C(=O)S/C(=C\c2ccc(-c3ccccc3C(=O)O)o2)C1=O (centres unmarked),20
7,CC(=O)c1ccc(NC(=O)CSc2ccc(-c3ccc4c(c3)OCO4)nn2)cc1,5.55
8,CN(C(=O)c1ccco1)C1(c2ccccc2Cl)CCCCC1=O (centres unmarked),10.1
9,O=C(Nc1ccc2c(c1)OCO2)C1CCCN(S(=O)(=O)Cc2ccccc2)C1 (centres unmarked),-2.41
10,O=C(NCc1ccc(Cl)cc1)C(=O)NCC1CCCN1S(=O)(=O)c1cccs1 (centres unmarked),-22.7
11,CCc1ccc(CNC(=O)CCn2ccc3cc(S(=O)(=O)N4CCCC4)ccc32)cc1,-9.2
12,O=C(Nc1nccs1)c1ccccc1N=Cc1ccccc1,-1.38
13,C/C(CCc1ccccc1)=N\NC(=O)COc1ccccc1C,-9.5
14,C=CCSc1nc(C)cc2c1C(=O)OC2,6.64
15,O=C(Nc1cccc(C(F)(F)F)c1)NC1CCN(S(=O)(=O)c2ccc(F)cc2)CC1,12.2
16,Cc1ccc2c(c1)N(C(=O)CCC(=O)N1CCC3(CC1)OCCO3)CC(C)O2 (centres unmarked),14.5
17,O=C(COC(=O)c1ccccn1)NCc1cccs1,-16.3
18,CCCn1cnc2cc(NCc3ccccc3O)ccc21,-0.21
19,CSc1ccccc1C(=O)NCc1cccnc1,5.77
20,Cc1nc(C)c(-c2ccccc2)c(=O)[nH]1,18
21,Cc1nn(-c2cc(N3CCCCC3)ccc2N)c(=O)c2ccccc12,-1.51
22,CC(C)(C)N1NC(=O)Nc2ccccc2C1=O,-5.55
23,CC(C)CN(CC(C)C)C(=O)CCCC(=O)N(CC(C)C)CC(C)C,-6.3

row,Structure (SMILES),"hERG current change (%, negative = inhibition) at 10uM [%]"
1,COc1ccc(/C=C(\NC(=O)c2ccc(Cl)cc2)C(=O)NCC2CCCO2)cc1OC (centres unmarked),0.622
2,O=C(CN1C(=O)C2CC=CCC2C1=O)NC1=NCCS1 (centres unmarked),7.35
3,Cc1sc(NC(=O)CSc2nnnn2C)c(C#N)c1C,-8.76
4,CCn1c(SCC(=O)N2CCN(c3ccccc3F)CC2)nnc1-c1ccoc1C,-28.2
5,N/C(Cc1ccc([N+](=O)[O-])cc1)=N\OC(=O)c1ccco1,-26.8
6,COC(=O)c1ccc(COc2cc(C)cc3oc(=O)c4c(c23)CCCC4)o1,12.6
7,CN(/N=C/C=C/c1ccccc1)C1=NS(=O)(=O)c2ccccc21,4.8
8,CCn1cc(SCC(N)=O)c2ccccc21,2.49
9,COc1ccc(C(=O)OC(C(=O)c2ccccc2)c2ccccc2)cc1 (centres unmarked),3.44
10,Cc1csc(=O)n1CCC(=O)O,17.3
11,O=C(Nc1ccccc1NC(=O)c1c(F)cccc1F)c1c(F)cccc1F,25.4
12,Clc1ccc(C[n+]2cc(-c3ccc(Cl)cc3)n3c2CCC3)cc1.[Cl-],-61.9
13,Cc1ccc2nccc(C(=O)N3CCCC(Nc4ccc(C)c(C)c4)C3)c2c1 (centres unmarked),-14.3
14,CCOC(=O)c1cnc2ccccc2c1Nc1cc(C(=O)O)ccc1C,14.9
15,O=C(O)C1CC(=O)N(Cc2cccnc2)C1 (centres unmarked),3.95
16,COc1ccc(N(CC(=O)N2CCN(c3ccc(Cl)cc3)CC2)S(=O)(=O)c2c(C)noc2C)cc1,-12.2
17,CCCCCCSc1nsc(NC(=O)CCC)n1,10.6
18,O=C(Nc1cccc2ccccc12)N1CC=C(c2ccccc2)CC1,19.7
19,CCC(=O)NC(=S)Nc1ccc(NC(=O)c2ccco2)cc1,12.1
20,O=C(NCc1ccco1)c1ccc(CS(=O)(=O)Cc2ccc(F)cc2)o1,-18.7
21,COC(CNC(=O)c1ccc2c(c1)ncn2C1CCCCCC1)OC,4.09
22,O=C(CSc1ccccc1)Nc1ccc2sccc2c1,10.3
23,COc1ccc(C2=NN(C(=O)c3cccs3)C(c3ccccc3OC)C2)cc1OC (centres unmarked),-0.915

row,Structure (SMILES),"hERG current change (%, negative = inhibition) at 10uM [%]"
1,OCC[C@H]1C[C@@H](O)[C@H](O)[C@@]2(Cc3ccccc3CO2)O1,10
2,O=C(CCC1CCN(C(=O)c2cncs2)CC1)Nc1ccccc1,-4.83
3,CCCNC1=C(N(C(C)=O)c2cccc(F)c2)C(=O)c2ccccc2C1=O,5.26
4,O=C(CCn1cnc2ccccc2c1=O)Nc1ccc(S(=O)(=O)N2CCCCC2)cc1,5.86
5,O=C(N/N=C/c1ccc(Br)s1)c1ccc([N+](=O)[O-])cc1,17
6,COc1ccc(NC(=O)C2CC3CCC2C3)c(OC)c1 (centres unmarked),-6.88
7,O=C(NCCN1CCOCC1)c1cc(-c2ccccc2Cl)on1,4.93
8,COc1ccc(C(=O)Oc2ccc(C(C)=O)cc2)c(OC)c1,1.72
9,COc1ccc(C(=O)Nc2nc3ccccc3s2)cc1OC,-65.8
10,O=C(CN(Cc1ccc(F)cc1)C(=O)CNS(=O)(=O)c1ccccc1)NCc1ccco1,-6.75
11,COC(=O)CNC(=O)CNC(=O)Nc1ccccc1 ({NHPh-CO}-Gly-Gly-OMe),-0.958
12,CCc1ccc(C(=O)NNC(=S)Nc2ccc(S(N)(=O)=O)cc2)s1,16.6
13,COc1ccccc1NC(=O)CSc1nc(O)c(Cc2ccccc2)c(=O)[nH]1,9.93
14,CCCCc1ccc(NC(=O)CSCc2cc(=O)[nH][nH]2)cc1,-11.6
15,CC1(C)CC(=O)C=C(Nc2ccc(C(=O)O)cc2)C1,14.7
16,COc1cc(NC(=O)c2sc3ncn(CC(=O)N4CCC(C)CC4)c(=O)c3c2C)cc(OC)c1OC,3.73
17,[N-]=[N+]=NC[C@H](Cc1ccccc1)N1CCN(Cc2ccccc2)CCC1=O,3.9
18,CC(C)C1Nc2ccc(C(=O)O)cc2C2C=CCC21 (centres unmarked),24.6
19,O=C(CCN1C(=O)c2ccccc2C1=O)Nc1ccc(-c2cn3ccsc3n2)cc1,16.4
20,Nc1c(C(=O)NCc2ccc3c(c2)OCO3)nnn1Cc1ccc(Br)cc1,-5.41
21,O=C1NN=C(c2ccccc2)CC1c1c[nH]c2ccccc12 (centres unmarked),-7.51
22,Cc1nnc(N2CCOCC2)c2nn(-c3ccccc3)c(C)c12,-32.8
23,Cn1c(N)c(C(=O)COC(=O)CCC2CCCC2)c(=O)n(C)c1=O,-43.3
